Hit rate of the full screen: of about 340,000 compounds, about 12,000 (3.5%) were called active. The shares of active, inactive and inconclusive entries below differ from those in the screen. Calls follow the shape of the dose curve; as a rule, active = well fitted inhibition curve with a large enough effect; inconclusive = small, poorly fitted or top-dose-only effect, or another doubt; inactive = no such curve, though single readings can be large or run the other way. Potencies of inconclusive entries are left out as doubtful fits.
Experiment: qHTS Assay for Inhibitors of Hepatitis C Virus (HCV)
Settings: Huh7.5.1 HCVcc-Cre (HCVcc is cell-culture hepatitis C virus) infection, luciferase reporter, 44 h; series mostly up to 41.8 µM
Procedure, shortened: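 1,000 cells/well; 4 h culture; + compound; + HCVcc-Cre (~0.5 moi); 44 h; luciferase substrate, RT 15 min; read 15 sec.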
Potency is read from the fitted curve at half-maximal effect; tags tell the direction and shape of the fitted curve.

Question: For `CSc1cccc(NC(=O)C2CCCN2S(=O)(=O)c2ccc(Br)s2)c1` (stereo not given), which Potency is on record?
Answer: inactive

Question: For `COc1c(CC=C(C)C)c(O)cc2oc(=O)c3c4ccc(O)cc4oc3c12`, which Potency is on record?
Answer: active: 3.98 µM

Question: With `Cc1ccc2nc(SCc3cn4cccnc4n3)[nH]c2c1` as the compound, how does the Potency read?
Answer: inconclusive [inhibitor, single point]

Question: For `COc1ccc(NC(=O)CN(C)C(=O)c2ccc3[nH]c4c(c3c2)CC(C)CC4)cc1` (stereo not given), which Potency is on record?
Answer: inconclusive [inhibitor, full curve, poor fit]

Question: For `N#Cc1ccc(C(=O)Nc2cc(C3CC3)nn2-c2ccccc2)cc1`, which Potency is on record?
Answer: inconclusive [inhibitor, single point]

Question: For `CCOc1cc(C(=O)N(C)Cc2cc3cc(OC)ccc3[nH]c2=O)cc(OCC)c1OCC`, which Potency is on record?
Answer: inconclusive [inhibitor, single point]

Question: For `Cn1c(SCc2cccc(Br)c2)nc2ccccc2c1=O`, which Potency is on record?
Answer: active: 22.4 µM

Question: Which Potency does the source give for `Fc1cccc(Nc2nc(N3CCOCC3)nc(N3CCOCC3)n2)c1` here?
Answer: inconclusive [inhibitor, partial curve]

Question: Which Potency does the source give for `CCN(CC)c1ccc(/C=c2\sc3nc4ccccc4n3c2=O)c(O)c1` here?
Answer: inconclusive [inhibitor, partial curve]

Question: Which Potency does the source give for `COc1cc(N/N=C(\C)c2ccc(N)cc2)nc(-c2ccccc2)n1` here?
Answer: active: 11.2 µM

Question: Which Potency does the source give for `COc1ccc(N2C(=O)/C(=C/c3ccc([N+](=O)[O-])cc3)N=C2C)c(OC)c1` here?
Answer: inconclusive [inhibitor, single point]

Question: With `C=CCc1c(C)[nH]c2ccc(C)cc2c1=O` as the compound, how does the Potency read?
Answer: inactive

Question: Which Potency does the source give for `CC(C)n1cc(/C=C2/SC(=O)N(CC(=O)Nc3ccc4c(c3)OCO4)C2=O)c2ccccc21` here?
Answer: inconclusive [inhibitor, partial curve]

Question: With `CN(C)C(CNC(=O)c1ccc(Cl)c(S(=O)(=O)N2CCCCCC2)c1)c1ccccc1` (stereo not given) as the compound, how does the Potency read?
Answer: active: 6.31 µM

Question: Which Potency does the source give for `CCCC(=O)Nc1ccc(NC(=O)c2ccccc2Cl)nc1` here?
Answer: inconclusive [inhibitor, partial curve, poor fit]

Question: Which Potency does the source give for `COC(=O)[C@@H]1CCCN1Cc1c(C(=O)N2CCCCC2)nc2c(C)cccn12` here?
Answer: inactive

Question: Which Potency does the source give for `Cc1cc(C)c(CSc2ncc(-c3ccc([N+](=O)[O-])cc3)[nH]2)c(C)c1` here?
Answer: active: 11.2 µM

Question: For `Cc1nc(-c2cn[nH]c2)c2cc(C)oc2n1`, which Potency is on record?
Answer: inconclusive [inhibitor, partial curve, poor fit]

Question: Which Potency does the source give for `CC(C)C(C(=O)NC(C)(C)C)N(CCN1CCOCC1)C(=O)CNS(=O)(=O)c1ccccc1` (stereo not given) here?
Answer: inactive

Question: With `COCCN(CCOC)S(=O)(=O)c1ccc(C(=O)Nc2nc(C)c(C(C)=O)s2)cc1` as the compound, how does the Potency read?
Answer: inactive

— PubChem BioAssay AID651820 (National Center for Advancing Translational Sciences (NCATS), 2012)
